Source: PubChem BioAssay AID2147 (National Center for Advancing Translational Sciences (NCATS), 2009)
Several values for one entry are separate records, joined by “and”; a condition that tells them apart may be missing. Identical values can stand only once. The whole screen tested about 230,000 compounds, of which about 3,600 (1.6%) were called active. The shares of active, inactive and inconclusive entries below differ from those in the screen. Calls come from the whole dose curve; as a rule, active = well fitted inhibition curve with a large enough effect (not every such curve was filed as active); inconclusive = small, poorly fitted or top-dose-only effect, or another doubt; inactive = no such curve, though single readings can be large or run the other way. A potency beside an inconclusive call is a rough fit, not a confirmed value.
Note: nearly all actives have a fitted effect of over 50% in size.
Potency is the fitted concentration of half-maximal effect; tags give direction and shape of the fitted curve.

Each molecule was assayed against Lysine-specific demethylase 4E (Homo sapiens) (UniProt B2RXH2) (assay: qHTS Assay for Inhibitors of Human Jumonji Domain Containing 2E (JMJD2E)). Details: JMJD2E catalytic domain, FDH-coupled NADH fluorescence (FDH is formaldehyde dehydrogenase); series mostly up to 57.1 µM.
UniProt B2RXH2, sequence (B2RXH2 whole entry, looked up, the tested form may be a part): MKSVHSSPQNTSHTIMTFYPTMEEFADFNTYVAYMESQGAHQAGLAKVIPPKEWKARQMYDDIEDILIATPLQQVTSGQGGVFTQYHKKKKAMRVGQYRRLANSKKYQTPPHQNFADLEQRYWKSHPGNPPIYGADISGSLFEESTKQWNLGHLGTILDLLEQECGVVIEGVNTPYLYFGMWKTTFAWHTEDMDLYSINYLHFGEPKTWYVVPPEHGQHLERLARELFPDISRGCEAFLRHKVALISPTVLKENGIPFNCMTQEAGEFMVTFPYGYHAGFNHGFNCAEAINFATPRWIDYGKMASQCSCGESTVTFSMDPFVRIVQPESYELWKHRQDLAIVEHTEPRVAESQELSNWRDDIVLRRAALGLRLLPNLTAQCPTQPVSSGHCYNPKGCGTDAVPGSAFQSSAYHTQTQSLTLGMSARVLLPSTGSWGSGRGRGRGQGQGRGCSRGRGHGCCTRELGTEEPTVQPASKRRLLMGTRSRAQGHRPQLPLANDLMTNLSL
In the case of OCCN(Cc1ccccc1)Cc1cccc(F)c1, the Potency is reported as inconclusive: 39.8 µM [inhibitor, single point]. For CCC12CN3CCN(CC(C3)C1O)C2 (stereo not given), the Potency was “inactive”. For Cc1cc(/C=C2/C(=O)NC(=O)N(C)C2=O)c(C)n1-c1ccccc1, the Potency was “inactive”. In the case of CC[C@@H]1CN2CCc3cc(OC)c(OC)cc3[C@H]2C[C@@H]1C[C@H]1NCCc2cc(OC)c(OC)cc21, the Potency is reported as “inactive”. CC(=O)Nc1ccc2c(c1)CC1(C(=O)N(C)C(=O)N(C)C1=O)C1CCCN21 (stereo not given) was tested, and the Potency was inconclusive: 39.8 µM [inhibitor, single point]. With CN1C2CCC1CC(OC(=O)C1CCC(C(=O)OC3CC4CCC(C3)N4C)(c3ccccc3)c3ccccc31)C2 (stereo not given) the Potency was “inactive”. CCCCCC[C@H]1C(=O)O[C@H](C)[C@H](NC(=O)c2cccc(NC=O)c2O)C(=O)O[C@@H](C)[C@H]1OC(=O)CC(C)C was tested, and the Potency was inconclusive: 12.6 µM [inhibitor, partial curve]. With Cc1cc(=O)n2[nH]c(C)cc2n1 the Potency was inconclusive: 35.5 µM [inhibitor, single point]. For CCOc1cc(-c2nc3c(C)cccn3c2NCC2CCCO2)ccc1O (stereo not given), the Potency was inconclusive: 31.6 µM [inhibitor, partial curve]. With Oc1ccc2c3c1O[C@H]1c4[nH]c5c(c4C[C@@]4(O)[C@@H](C2)N(CC2CC2)CC[C@]314)C[C@]1(O)[C@H]2Cc3ccc(O)c4c3[C@@]1(CCN2CC1CC1)[C@@H]5O4 the Potency was inconclusive: 22.4 µM [inhibitor, partial curve, poor fit]. For O=C1C(Cl)=C(Cl)C(=O)C(Cl)=C1Cl, the Potency was inconclusive: 0.708 µM [inhibitor, full curve]. For CC[N+](C)(CC)CCCCOc1ccc2c(c1)C(=O)c1cc(OCCCC[N+](C)(CC)CC)ccc1-2, the Potency was “inactive”. In the case of CCC(=NCCc1ccccc1)c1c(O)n(C2CCCCC2)c(=O)[nH]c1=O, the Potency is reported as “inactive”. For C[C@H]1CC[C@@]2(NC1)O[C@@H]1C[C@H]3[C@@H]4CC[C@@H]5C[C@@H](O)CC[C@@]5(C)[C@@H]4CC[C@]3(C)[C@@H]1[C@@H]2C, the Potency was “inactive”. For COC(=O)c1[nH]c2ccc(C)cc2c1NC(=O)Oc1ccccc1, the Potency was inconclusive: 31.6 µM [inhibitor, single point]. For COc1cccc(CN2CCCCC2c2cccnc2)c1 (stereo not given), the Potency was inconclusive: 25.1 µM [inhibitor, single point]. COc1ccc(C2CC(c3cccs3)=NN2c2nc(C)c(C(C)=O)s2)cc1OC (stereo not given) was tested, and the Potency was inconclusive: 12.6 µM [inhibitor, partial curve]. With NC(N)=N/N=C/c1cn(-c2ccccc2)nc1-c1cccs1 the Potency was inconclusive: 31.6 µM [inhibitor, partial curve]. In the case of CN1CC(CO)=C[C@H]2c3cccc4[nH]cc(c34)C[C@H]21, the Potency is reported as inconclusive: 28.2 µM [inhibitor, partial curve]. COc1cc2c(cc1O)C[C@H]1c3c(cc(O)c(OC)c3-2)CCN1C was tested, and the Potency was inconclusive: 8.91 µM [inhibitor, partial curve]. For COc1cc(NC(=O)CN2C3CCC2CC(O)(c2cccnc2)C3)cc(OC)c1 (stereo not given), the Potency was “inactive”. In the case of CCCCn1c(O)c(/C=N/N2CCOCC2)c(=O)[nH]c1=S, the Potency is reported as “inactive”. O=C(NC1(C(F)(F)F)Oc2ccccc2O1)N1CCC2(CC1)OCCO2 was tested, and the Potency was active: 14.1 µM. O=Cc1ccc(O)c(O)c1 was tested, and the Potency was active: 4.47 µM. With COCCOC(=O)c1c(N)n(Cc2ccco2)c2nc3ccccc3nc12 the Potency was inconclusive: 20 µM [inhibitor, partial curve]. In the case of O=C1NC(=O)N(c2cccc(Cl)c2)C(=O)/C1=C\c1ccc(Sc2nc3ccccc3[nH]2)o1, the Potency is reported as inconclusive: 39.8 µM [inhibitor, single point]. O=c1cc(CN2CC=C(c3ccccc3)CC2)c2c(ccc3ccccc32)o1 was tested, and the Potency was inconclusive: 31.6 µM [inhibitor, partial curve]. With CCN1C(=O)C(=Cc2ccc(C)s2)C(=O)N(CC)C1=S the Potency was “inactive”. In the case of N#CC1=C(N)Oc2n[nH]c(-c3cccs3)c2C1c1ccccc1C(=O)O (stereo not given), the Potency is reported as inconclusive: 28.2 µM [inhibitor, single point]. With CCOC(=O)c1c(C)n(Cc2ccccc2)c2ccc(O)cc12 the Potency was inconclusive: 22.4 µM [inhibitor, partial curve]. With CC(=O)Nc1ccccc1C(=O)OCc1ccc(C(=O)c2ccccc2)cc1 the Potency was “inactive”. For c1ccc2sc(C3(N4CCCCC4)CCCCC3)cc2c1, the Potency was “inactive”. In the case of Cc1cccc(-n2c(O)c(/C=N/NC(=O)c3ccncc3)c(=O)[nH]c2=O)c1, the Potency is reported as inconclusive: 14.1 µM [inhibitor, partial curve]. With CCOP(=O)(OCC)C(NS(=O)(=O)c1ccccc1)C(Cl)(Cl)Cl (stereo not given) the Potency was inconclusive: 28.2 µM [inhibitor, partial curve]. In the case of CCCCn1c(O)c(C(CC)=Nc2cccc(C(=O)O)c2)c(=O)[nH]c1=O, the Potency is reported as inconclusive: 31.6 µM [inhibitor, partial curve]. For CC(=O)Nc1cc(C(=O)N2CCC3(CC2)OCCO3)ccc1Sc1ccc(F)cc1, the Potency was “inactive”. For C[C@]12CC[C@@H]3C(=CCc4cc(O)ccc43)[C@@H]1CCC2=O, the Potency was “inactive”. For CN(C)c1ccc(C(=O)c2ccc(N(C)C)cc2)cc1, the Potency was “inactive”. With CC(O)C(C)OC(=O)[C@@H]1C[C@@H]2c3cccc4c3c(cn4C(C)C)C[C@H]2N(C)C1 (stereo not given in full) the Potency was inconclusive: 39.8 µM [inhibitor, single point]. CCN(CC)c1ccc(N=Cc2c(O)n(CCC3=CCCCC3)c(=O)[nH]c2=O)cc1 was tested, and the Potency was “inactive”. In the case of CCOP(=O)(OCC)c1nc(-c2cccc3ccccc23)oc1N1CCOCC1, the Potency is reported as inconclusive: 28.2 µM [inhibitor, partial curve]. For Cc1cc(Cl)ccc1C(=O)C1CCCN(C2CCSCC2)C1 (stereo not given), the Potency was “inactive”. For CNS(=O)(=O)c1ccc(N=Cc2c(O)n(-c3cccc(C)c3)c(=O)[nH]c2=O)cc1, the Potency was inconclusive: 25.1 µM [inhibitor, single point]. For CCn1c(C)[n+](CC)c2ccc(S(=O)(=O)NC)cc21, the Potency was active: 7.94 µM. With COc1cc2c(cc1O)CC1c3c(cc(O)c(OC)c3-2)CCN1C (stereo not given) the Potency was inconclusive: 31.6 µM [inhibitor, partial curve] and inconclusive: 28.2 µM [inhibitor, partial curve] and inconclusive: 22.4 µM [inhibitor, partial curve].
